# Reference: the supplement of paper PMC12217912
# This is one part of the list. The full chains were built here from the parent and the listed change. Inactive controls read about 0.05.
# B1: TEV protease; numbered along this chain (parent)
# chain: MGESLFKGPRDYNPISSSICHLTNESDGHTTSLYGIGFGPFIITNKHLFRRNNGTLVVQSLHGVFKVKDTTTLQQHLVDGRDMIIIRMPKDFPPFPQKLKFREPQREERICLVTTNFQTKSMSSMVSDTSCTFPSGDGIFWKHWIQTKDGQCGSPLVSTRDGFIVGIHSASNFTNTNNYFTSVPKNFMELLTNQEAQQWVSGWRLNADSVLWGGHKVFMVKPEEPFQPVKEATQL
# Variants of: B1
# Experiment: raw area under fraction-flipped curve 0-4 h after induction (AUC4h, not background-subtracted), DNA-recorder readout of cleavage of the substrate (dimensionless); higher = more cleavage of the substrate by the protease variant
# Settings: temperature: 34 °C; time window: 0-4 h after rhamnose induction
# Protocol: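 In vivo DNA recorder in E. coli TOP10(DE3) ΔrhaA at 34 °C. Each TEVp single-site mutant (parent TEVp 0) is paired with a single-site variant of the 7-mer TEVs (canonical ENLYFQ|S). The substrate sits between flexible linkers in a Bxb1-sfGFP-TEVs-SsrA fusion, so cleavage stabilises Bxb1 and speeds flipping of a recombination array, read by NGS. The value is the raw area under the fraction-flipped curve over 0-4 h after rhamnose induction (AUC4h), with ≥20 reads per time point. It is not background-subtracted; inactive controls average about 0.047.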
# 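Further: Bxb1 expression induced with 0.2% (w/v) L-rhamnose at OD600 near 0.5, cultures sampled hourly, flipped fraction per protease–substrate barcode pair counted by paired-end Illumina sequencing.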
Variant,area with substrate ENLYCQS,area with substrate ENLYDQS,area with substrate ENLYEQS,area with substrate ENLYGQS,area with substrate ENLYHQS,area with substrate ENLYLQS,area with substrate ENLYMQS,area with substrate ENLYNQS,area with substrate ENLYPQS,area with substrate ENLYRQS,area with substrate ENLYIQS,area with substrate ENLYKQS,area with substrate ENLYVQS,area with substrate ENLYYQS,area with substrate ENLYQQS,area with substrate ENLYSQS,area with substrate ENLYTQS,area with substrate ENLYWQS
K46Q,0.121,0.0729,0.0889,0.064,0.0592,0.104,0.0733,0.049,0.0827,0.0656,,,,,,,,
Q151P,0.0662,0.0635,0.0485,0.0671,0.0545,0.0451,,0.0823,0.0699,,0.0398,0.0102,0.0751,0.0467,,,,
G213M,0.0538,0.0829,0.0569,0.055,0.0606,,0.0712,0.0588,0.0633,0.0405,0.0866,,0.0033,0.0515,0.0402,0.0699,0.0494,0.0558
F187H,0.063,0.0724,0.0649,0.0338,0.0525,,0.111,0.0627,0.0781,0.0587,0.0619,0.0709,0.07,,,0.059,0.0619,0.069
F133Q,0.0915,,0.0737,0.0719,0.0618,,0.0555,0.0607,,,0.193,0.0592,,0.0774,0.0669,0.0892,,
L211V,0.0679,0.063,0.0698,,,,0.0843,,,,0.114,0.0758,0.124,,,,,0.0528
K148P,,0.0726,0.0611,0.0651,0.0569,,0.0594,0.0609,0.0716,0.0743,0.0706,0.06,,,,,0.0523,
T159L,,0.0575,0.0582,0.0529,0.0473,,,0.0616,,,0.119,0.0377,0.0867,0.074,0.0554,0.0593,,0.082
D161H,,0.073,0.0612,,0.0759,0.0601,,,,0.0621,0.0926,,0.074,,0.0684,0.119,,0.0427
W141Q,,0.0525,0.062,0.0689,0.0574,,,0.0538,0.0554,,0.0496,0.0674,0.0572,0.0433,0.0645,0.0527,,0.0512
D82Q,,0.0644,0.0607,0.0491,,0.0607,0.0562,0.0631,0.0519,0.0598,0.0535,0.0689,,0.0842,0.063,,,0.0516
F117K,,0.0611,0.0759,0.0577,0.019,,0.0455,0.066,0.0707,0.0521,,,0.114,0.0645,0.063,0.069,,
F133Y,,0.0552,0.0427,,0.0625,,0.0812,0.0739,,,0.113,0.0632,0.124,,0.0685,,,
H76Q,,0.0579,0.0629,0.128,,,,0.0646,0.0752,0.0554,,,,,,0.0944,,0.0686
M188Y,,0.0569,0.0745,,0.0619,,0.0887,0.0696,0.079,0.0564,0.139,,0.115,0.0621,0.0812,0.0848,,0.0727
A196H,,0.0649,0.0703,0.0649,0.0654,,0.0915,0.0753,0.0657,0.0722,0.158,0.0553,0.118,0.0742,0.0611,0.0677,,
S124E,,0.0621,0.0841,0.051,0.0786,,0.0894,0.0755,,0.06,0.116,0.0426,,,0.0483,0.0801,0.0702,0.0828
T114V,,0.0595,0.056,0.0791,0.0583,0.0762,,0.0922,0.0787,0.0733,,,0.109,,0.0621,0.0712,,0.0816
E25T,,0.0541,0.0729,,0.0815,0.0846,,,0.0659,,,,0.121,0.0654,,,,
M83I,,0.0617,,0.0586,0.0557,0.0729,,,0.0678,0.0636,,0.0602,,0.0554,,,,
K46Y,,0.065,0.0625,0.0563,0.0555,0.0473,0.0605,0.0448,0.0572,0.0625,0.0035,0.0552,0.0789,,0.0549,0.0488,0.0523,0.0435
P222Q,,0.0428,0.0689,0.0743,0.0573,,,0.0601,0.0686,0.0604,0.114,0.0693,0.106,0.0623,0.0579,0.0541,0.0726,0.0779
W141G,,0.0497,0.0592,,0.0522,,0.0564,0.0589,0.0522,0.0478,,0.0507,0.043,0.0535,0.0708,,0.0603,0.0558
R102D,,0.0395,0.0899,0.0443,0.0605,,,0.0497,0.0417,,0.0551,0.0583,0.0585,,0.0714,,,
M125K,,0.0588,0.0778,0.128,0.101,,0.0844,0.084,0.0795,0.0604,,0.0211,,0.0673,0.0669,0.082,,
G136M,,0.0553,0.0638,0.077,,,0.1,0.0881,0.0669,0.0615,0.0791,,0.17,,,0.0852,0.0846,0.0926
Y12E,,0.06,0.0674,0.0674,0.0669,0.0813,0.0712,0.0673,0.0788,0.0519,0.127,0.0511,0.0868,0.068,0.059,,,0.0941
L205E,,0.0605,0.0529,0.062,,,0.0538,,,,,,0.0788,,,0.0595,,0.0537
V165S,,0.0551,0.0662,0.0569,0.0489,,0.0514,0.0341,0.048,0.0536,0.0212,0.0568,0.0414,0.0527,0.0529,0.0455,0.0749,
